Tests used:
C1q = target: T1, C1q (UniProt P02745; P02746; P02747); test: BLI (Fortebio Octet), antibody immobilized on FAB2G sensor, C1q 0.625-10 nM in solution
T1 construct: also called serum complement C1q; complement C1q
Procedure: The sensor was refreshed 4 times in 10 mM glycine pH 1.7, each for 5 s. The shaking speed of the sample plate was 1000 rpm, the temperature was 30° C. and the frequency was 0.6 Hz. The data were analyzed by 1:1 model fitting to obtain affinity constants. The data acquisition software was Fortebio Data Acquisition 7.0, and the data analysis software was Fortebio Data Analysis 7.0.

FcγRIIIa_F158 = target: T2, FcγRIIIa_F158 (UniProt P08637 fragment); test: BLI (Fortebio Octet), FcγRIIIa_F158 immobilized on HIS1K sensor, antibody 31.25-500 nM in solution (the legend prints FcγRIIa_F158; Example 6 gives FIGS. 21-25 as FcγRIIIa_F158)
T2 construct: also called CD16a F158; hFcGR3A(F158)-his; not shown: His tag ('-his')
Procedure: The sensor was equilibrated in a buffer for 60 s, and the binding of the immobilized hFcGR3A(F158)-his on the sensor to the antibodies at concentrations of 31.25-500 nM (serial two-fold dilution) was determined for 60 s. The antibody was dissociated in the buffer for 60 s. The sensor was refreshed 4 times in 10 mM glycine pH 1.5, each for 5 s. The detection temperature was 30° C. and the frequency was 0.3 Hz. The data were analyzed by 1:1 model fitting to obtain affinity constants.

FcγRIIIa_F158, sequence (P08637 17-208 limits assumed): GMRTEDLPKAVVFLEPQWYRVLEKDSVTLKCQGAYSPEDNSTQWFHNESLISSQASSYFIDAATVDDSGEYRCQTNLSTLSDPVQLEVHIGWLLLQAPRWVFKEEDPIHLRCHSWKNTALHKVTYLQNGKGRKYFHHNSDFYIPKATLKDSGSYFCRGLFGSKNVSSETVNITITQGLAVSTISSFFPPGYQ
C1q, sequence (P02745 23-245 limits assumed, chain 1 of 3): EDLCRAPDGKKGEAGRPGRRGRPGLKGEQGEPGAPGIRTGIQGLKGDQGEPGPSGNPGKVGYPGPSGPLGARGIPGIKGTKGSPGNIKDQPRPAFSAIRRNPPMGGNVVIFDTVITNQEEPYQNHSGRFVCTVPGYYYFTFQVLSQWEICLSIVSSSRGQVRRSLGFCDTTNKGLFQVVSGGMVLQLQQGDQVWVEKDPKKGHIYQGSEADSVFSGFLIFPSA
C1q, sequence (P02746 28-253 limits assumed, chain 2 of 3, further chain): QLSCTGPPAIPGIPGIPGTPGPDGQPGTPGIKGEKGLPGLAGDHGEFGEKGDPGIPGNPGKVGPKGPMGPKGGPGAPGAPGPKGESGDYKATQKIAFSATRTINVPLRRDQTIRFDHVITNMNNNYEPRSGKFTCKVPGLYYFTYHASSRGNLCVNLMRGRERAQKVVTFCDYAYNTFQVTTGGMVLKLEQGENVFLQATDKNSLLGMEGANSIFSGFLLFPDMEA
C1q, sequence (P02747 29-245 limits assumed, chain 3 of 3, further chain): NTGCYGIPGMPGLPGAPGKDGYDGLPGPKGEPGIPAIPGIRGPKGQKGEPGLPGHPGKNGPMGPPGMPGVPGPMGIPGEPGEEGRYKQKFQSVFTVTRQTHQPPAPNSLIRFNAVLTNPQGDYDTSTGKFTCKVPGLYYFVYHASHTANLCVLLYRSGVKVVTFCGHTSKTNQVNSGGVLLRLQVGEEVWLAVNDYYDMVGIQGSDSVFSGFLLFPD

B1: VP101(hG4WT) (bispecific antibody, human IgG4 S228P, kappa)
heavy: EVQLVESGGGLVQPGGSLRLSCAASGYTFTNYGMNWVRQAPGKGLEWVGWINTYTGEPTYAADFKRRFTFSLDTSKSTAYLQMNSLRAEDTAVYYCAKYPHYYGSSHWYFDVWGQGTLVTVSSASTKGPSVFPLAPCSRSTSESTAALGCLVKDYFPEPVTVSWNSGALTSGVHTFPAVLQSSGLYSLSSVVTVPSSSLGTKTYTCNVDHKPSNTKVDKRV[human IgG4 Fc with S228P (EU numbers) left out here]GGGGSGGGGSGGGGSGGGGSEVQLVESGGGLVQPGGSLRLSCAASGFAFSSYDMSWVRQAPGKGLDWVATISGGGRYTYYPDSVKGRFTISRDNSKNNLYLQMNSLRAEDTALYYCANRYGEAWFAYWGQGTLVTVSSGGGGSGGGGSGGGGSGGGGSDIQMTQSPSSMSASVGDRVTFTCRASQDINTYLSWFQQKPGKSPKTLIYRANRLVSGVPSRFSGSGSGQDYTLTISSLQPEDMATYYCLQYDEFPLTFGAGTKLELKR
light: DIQMTQSPSSLSASVGDRVTITCSASQDISNYLNWYQQKPGKAPKVLIYFTSSLHSGVPSRFSGSGSGTDFTLTISSLQPEDFATYYCQQYSTVPWTFGQGTKVEIKRTVAAPSVFIFPPSDEQLKSGTASVVCLLNNFYPREAKVQWKVDNALQSGNSQESVTEQDSKDSTYSLSSTLTLSKADYEKHKVYACEVTHQGLSSPVTKSFNRGEC
notes: also called VP101(G4M)
C1q
  binding result: no binding (tested: 10 nM)
FcγRIIIa_F158
  binding result: no binding (tested: 500 nM)

Reference: patent US20230027029A1 (AKESO BIOPHARMA, published 2023)
